Source: article PMC12136788
The other results are listed elsewhere or left out.

T1: UNK ZnF1-6 (called full-length) (human, UniProt Q9C0B0 30-357)
T1 sequence: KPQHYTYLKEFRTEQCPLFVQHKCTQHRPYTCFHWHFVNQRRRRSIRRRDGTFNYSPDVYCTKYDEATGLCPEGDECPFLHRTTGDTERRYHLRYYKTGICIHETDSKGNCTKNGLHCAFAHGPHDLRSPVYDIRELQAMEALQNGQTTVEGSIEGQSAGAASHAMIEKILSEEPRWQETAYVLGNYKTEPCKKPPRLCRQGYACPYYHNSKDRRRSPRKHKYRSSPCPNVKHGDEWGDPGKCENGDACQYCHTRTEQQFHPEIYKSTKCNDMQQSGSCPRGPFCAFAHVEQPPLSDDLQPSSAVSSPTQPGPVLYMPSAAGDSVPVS

B1: chr5:6669452:6669553:+|3pUTR|ENSG00000145545|unk|FALSE|unique (ssRNA)
RNA: GGGAGUUCUACAGUCCGACGAUCCAUCUCAUCUGGAGUUUUUAAAUGCCAUUUGUUUCAGUUGUCUUUAACAACAUAAUAAAUAGACUUUGCCAUUUAACAAGGUAGCUCAAAUUCUUUUACUAAUUGUUACAUCGAAACAUUCAACAGAGGAUUGAGCAUCA
B2: chr13:99866285:99866388:+|CDS|ENSG00000125246|unk|total|mutant (ssRNA)
RNA: GGGAGUUCUACAGUCCGACGAUCUAUUCUCUACGCCCGGCAAAAGAUUGUUGUCACCGCGAAAGCCUUUGGUCUCCAAGCCACCGAUCUGGUGUACAUUGACUUUCGAGAUGGAGCUGGGCUGCUCCGACAGUCACGAGAAGGCAACAGAGGAUUGAGCAUCA
B3: chr6:15520333:15520434:+|3pUTR|ENSG00000008083|unk|total|mutant (ssRNA)
RNA: GGGAGUUCUACAGUCCGACGAUCCUUGCUGCCGGAUUCAAGCUGUCUUUGCACCCGCUCUAAAGAAGAUUUUCUUCUGGUUUCCGAGAACUAAUUUUGUUUCCGCAUUAAACUGUUGAACUUUUUUUUGUACUCCGAAAACCUCAACAGAGGAUUGAGCAUCA
B4: ENSG00000107863:be:win_3401|CDS|ENSG00000107863|bound_else_gene|NA|bound_elsewhere_windowed (ssRNA)
RNA: GGGAGUUCUACAGUCCGACGAUCCAUUUGAGAAAAAGCCAACUGCUACAGGAACUUUCGGCGUCCGACUAGAUGACUGCCCACCAGCUCAUACUAAUCGGUAUAUUCCAUUAAUAGUUGACAUAUGUUGCAAAUUAGUUGAAGCAACAGAGGAUUGAGCAUCA
B5: chr14:73713276:73713377:-|CDS|ENSG00000176903|unk|total|mutant (ssRNA)
RNA: GGGAGUUCUACAGUCCGACGAUCGGGCAAAGGAGGGGUCUGGAAAGUGUUAUUUAAGCCCCCAACUUCUGAUGCUGAAUUUUCCGAAAGAUUGCACCUCUUCCCCGCCCGAGAGGGGUGGACCGUGCAAGAUGUUGCCCGUGUCAACAGAGGAUUGAGCAUCA
B6: chr2:86144366:86144519:-|CDS|ENSG00000132305|unk|total|mutant (ssRNA)
RNA: GGGAGUUCUACAGUCCGACGAUCAAACACAUUUAAAUUACUGUCAUAUGCUUCCUAUUGCAUUGAGCAUGGUGAUCUGGAGCCCGCAGCAAAGUUUGUCAAUCAGCUGAAGGGGGAAUCCAGACGAGUGGCACAGGACUGGCUCAACAGAGGAUUGAGCAUCA
B7: chr8:25429562:25429664:-|3pUTR|ENSG00000104756|unk|FALSE|unique (ssRNA)
RNA: GGGAGUUCUACAGUCCGACGAUCAGAAAAGCACUCAUUUAAUAGAUGUAGGGAAACUAGAUAUUGCUGCCUUUUGAAUGGGGUAGGGGGGUUUACCUGGUUUUAUGACCAGGCAUAGUAUCUAUUAUAUUUGCUUUUAAAUAGCAACAGAGGAUUGAGCAUCA
B8: chr12:85264020:85264122:+|3pUTR|ENSG00000133640|unk|total|mutant (ssRNA)
RNA: GGGAGUUCUACAGUCCGACGAUCCACCGUAUUUCAGUUACUUUCCACAGCUGUGUUGCUCAAUAACCGCAUCCAGUGAACUUCCGUAUUUUUUUGUUUUUCCUGUAUUUUAUUAAAAUAUUUCAUCCCGAGAUAACUGAAGUGCAACAGAGGAUUGAGCAUCA
B9: ENSG00000107863:be:win_451|CDS|ENSG00000107863|bound_else_gene|NA|bound_elsewhere_windowed (ssRNA)
RNA: GGGAGUUCUACAGUCCGACGAUCUUGGAACUUAGUGUUAUGCCAAAAGAUGAAGACAUUCUCCAAGUGCUACAGUUUACAAAGGAUGUCACAGCACUGGCAUAUUCUCAAGAUGCCUACCUGAAAGGCAACGAAGCUUAUAGCCAACAGAGGAUUGAGCAUCA
B10: chr8:97725557:97725573:+|3pUTR|ENSG00000147649|msi1_unk|total|mutant (ssRNA)
RNA: GGGAGUUCUACAGUCCGACGAUCGUUGACUUUAAAAAUGAAAUCAUUCACAAACUUUUGGUAUAUGAUGGAGAAUGAAAAACCCGAGUCAGACAGCUUUAAUUGACAUUGUCAACACCUCCAGUUAUCAGGAAUACAUUUUUUCAACAGAGGAUUGAGCAUCA
B11: chr9:136477283:136477384:-|CDS|ENSG00000148396|msi1|FALSE|unique (ssRNA)
RNA: GGGAGUUCUACAGUCCGACGAUCGCCCCCGCAGGGUUUUCUCAGCACCCCGGUUUGCUUGUUCCUCACACACAUGCCAGAGAUAGCUCUCAGGGACCCUGUGAGCCCCUGCCUGGACCUCUGACACAGCCCAGAGCACAUGCCCAACAGAGGAUUGAGCAUCA
B12: chr1:31434308:31434366:+|3pUTR|ENSG00000168528|msi1_unk|FALSE|overlapping (ssRNA)
RNA: GGGAGUUCUACAGUCCGACGAUCGCCAGGCUGAGCCCCCACCCCUGCCCCAGCUCCAGGACCUGCCCCUGAGCCGGGCCUUCUAGUCGUAGUGCCUUCAGGGUCCGAGGAGCAUCAGGCUCCUGCAGAGCCCCAUCCCCCCGCCAACAGAGGAUUGAGCAUCA
B13: chrX:23682378:23682503:+|CDS|ENSG00000123131|unk|FALSE|unique (ssRNA)
RNA: GGGAGUUCUACAGUCCGACGAUCUUCAUUAUUGAUGACAAAGGAAUCCUAAGACAAAUUACUCUGAAUGAUCUUCCUGUGGGUAGAUCAGUGGAUGAGACACUACGUUUGGUUCAAGCAUUCCAGUACACUGACAAACACGGACAACAGAGGAUUGAGCAUCA
B14: chr8:120459219:120459329:+|CDS|ENSG00000172167|unk|FALSE|unique (ssRNA)
RNA: GGGAGUUCUACAGUCCGACGAUCUUUGGAUUUGAAAUUAGUUUUCCUGAAUUUUGUUUAAAGGGAGUCACACUUAAGAAUUUUAGUACUUCUAAUUUAAAUACUGACUUCCUUGCCAAAAAGAUCAUACCAUCAAAGGAUAAGCAACAGAGGAUUGAGCAUCA

target: T1, UNK ZnF1-6 (called full-length); test: nsRBNS (natural sequence RNA bind-n-seq); RBNS binding buffer (assumed for nsRBNS): 25 mM Tris pH 7.5, 150 mM KCl, 3 mM MgCl2, 0.01% Triton X-100, 500 ug/ml BSA, 20 U/ml SUPERase-In, 4 C; UNK is unkempt and MSI1 is Musashi-1; names of the RNAs are library labels; protein concentration not given here; high values mean tight binding

Binder | binding signal [enrichment R]
B1 | 0.535
B2 | 0.414
B3 | 0.536
B4 | 0.605
B5 | 0.914
B6 | 0.587
B7 | 3.43
B8 | 3.21
B9 | 0.399
B10 | 0.642
B11 | 0.79
B12 | 2.02
B13 | 0.372
B14 | 1.46
